# MIC of invasive clinical C. tropicalis isolates, CLSI broth microdilution (fluconazole 0.12-256 mg/L, up to 1,024 for the azole-resistant cluster and its neighbour group; other ranges not stated); higher = less susceptible. Call: susceptible or wild type [S] / resistant or non-wild type [R] by CLSI breakpoints or cut-offs; intermediate and dose-dependent carry no call. '<=' and '>=' at the end values are inferred; the source marks only some of them. Isolates are numbered anew.
# Compound: CC[C@@H]([C@H](C)O)n1ncn(-c2ccc(N3CCN(c4ccc(OC[C@@H]5CO[C@@](Cn6cncn6)(c6ccc(F)cc6F)C5)cc4)CC3)cc2)c1=O [posaconazole]
# Test: CLSI broth microdilution.
row,Test System,MIC
1,"Candida tropicalis isolate 329 (ERG11 copies: 2, Erg11p: no key change)",0.5 mg/L [R]
2,"Candida tropicalis isolate 241 (ERG11 copies: 2, Erg11p: no key change)",0.015 mg/L [S]
3,"Candida tropicalis isolate 166 (ERG11 copies: 2, Erg11p: no key change)",0.25 mg/L [S]
4,"Candida tropicalis isolate 360 (ERG11 copies: 2, Erg11p: no key change)",0.25 mg/L [S]
5,"Candida tropicalis isolate 194 (ERG11 copies: 8, Erg11p: Y132F, S154F (heterozygous))",1 mg/L [R]
6,"Candida tropicalis isolate 391 (ERG11 copies: 2, Erg11p: Y132F, S154F (homozygous))",0.5 mg/L [R]
7,"Candida tropicalis isolate 170 (ERG11 copies: 2, Erg11p: Y132F, S154F (homozygous))",0.5 mg/L [R]
8,"Candida tropicalis isolate 313 (ERG11 copies: 2, Erg11p: no key change)",0.25 mg/L [S]
9,"Candida tropicalis isolate 417 (ERG11 copies: 8, Erg11p: Y132F, S154F, P397S (heterozygous))",2 mg/L [R]
10,"Candida tropicalis isolate 49 (ERG11 copies: 2, Erg11p: no key change)",0.25 mg/L [S]
11,"Candida tropicalis isolate 58 (ERG11 copies: 2, Erg11p: no key change)",0.5 mg/L [R]
12,"Candida tropicalis isolate 264 (ERG11 copies: 2, Erg11p: no key change)",0.12 mg/L [S]
13,"Candida tropicalis isolate 101 (ERG11 copies: 2, Erg11p: no key change)",0.03 mg/L [S]
14,"Candida tropicalis isolate 300 (ERG11 copies: 6, Erg11p: Y132F, S154F (heterozygous))",1 mg/L [R]
15,"Candida tropicalis isolate 79 (ERG11 copies: 2, Erg11p: no key change)",0.06 mg/L [S]
16,"Candida tropicalis isolate 162 (ERG11 copies: 2, Erg11p: no key change)",1 mg/L [R]
17,"Candida tropicalis isolate 11 (ERG11 copies: 2, Erg11p: no key change)",0.25 mg/L [S]
18,"Candida tropicalis isolate 238 (ERG11 copies: 2, Erg11p: Y257H (homozygous))",0.5 mg/L [R]
19,"Candida tropicalis isolate 227 (ERG11 copies: 2, Erg11p: no key change)",0.12 mg/L [S]
20,"Candida tropicalis isolate 311 (ERG11 copies: 2, Erg11p: Y132F, S154F (homozygous))",0.25 mg/L [S]
21,"Candida tropicalis isolate 444 (ERG11 copies: 2, Erg11p: no key change)",0.06 mg/L [S]
22,"Candida tropicalis isolate 60 (ERG11 copies: 2, Erg11p: no key change)",0.12 mg/L [S]
23,"Candida tropicalis isolate 421 (ERG11 copies: 2, Erg11p: no key change)",0.25 mg/L [S]
24,"Candida tropicalis isolate 290 (ERG11 copies: 2, Erg11p: no key change)",0.5 mg/L [R]
25,"Candida tropicalis isolate 365 (ERG11 copies: 2, Erg11p: no key change)",0.25 mg/L [S]
26,"Candida tropicalis isolate 362 (ERG11 copies: 2, Erg11p: no key change)",0.5 mg/L [R]
27,"Candida tropicalis isolate 291 (ERG11 copies: 2, Erg11p: no key change)",0.03 mg/L [S]

# Compound: CCC(C)n1ncn(-c2ccc(N3CCN(c4ccc(OCC5COC(Cn6cncn6)(c6ccc(Cl)cc6Cl)O5)cc4)CC3)cc2)c1=O [itraconazole]
# Test: CLSI broth microdilution.
row,Test System,MIC
1,"Candida tropicalis isolate 326 (ERG11 copies: 4, Erg11p: Y132F, S154F (heterozygous))",0.25 mg/L [S]
2,"Candida tropicalis isolate 75 (ERG11 copies: 2, Erg11p: no key change)",0.25 mg/L [S]
3,"Candida tropicalis isolate 113 (ERG11 copies: 2, Erg11p: no key change)",0.03 mg/L [S]
4,"Candida tropicalis isolate 324 (ERG11 copies: 2, Erg11p: no key change)",0.03 mg/L [S]
5,"Candida tropicalis isolate 125 (ERG11 copies: 7, Erg11p: Y132F, S154F (heterozygous))",1 mg/L [R]
6,"Candida tropicalis isolate 29 (ERG11 copies: 2, Erg11p: no key change)",0.5 mg/L [S]
7,"Candida tropicalis isolate 250 (ERG11 copies: 2, Erg11p: no key change)",0.25 mg/L [S]
8,"Candida tropicalis isolate 446 (ERG11 copies: 2, Erg11p: no key change)",0.12 mg/L [S]
9,"Candida tropicalis isolate 132 (ERG11 copies: 10, Erg11p: Y132F, S154F (heterozygous))",1 mg/L [R]
10,"Candida tropicalis isolate 329 (ERG11 copies: 2, Erg11p: no key change)",0.5 mg/L [S]
11,"Candida tropicalis isolate 241 (ERG11 copies: 2, Erg11p: no key change)",0.015 mg/L [S]
12,"Candida tropicalis isolate 166 (ERG11 copies: 2, Erg11p: no key change)",0.25 mg/L [S]
13,"Candida tropicalis isolate 360 (ERG11 copies: 2, Erg11p: no key change)",0.25 mg/L [S]
14,"Candida tropicalis isolate 194 (ERG11 copies: 8, Erg11p: Y132F, S154F (heterozygous))",1 mg/L [R]
15,"Candida tropicalis isolate 391 (ERG11 copies: 2, Erg11p: Y132F, S154F (homozygous))",0.5 mg/L [S]
16,"Candida tropicalis isolate 170 (ERG11 copies: 2, Erg11p: Y132F, S154F (homozygous))",0.5 mg/L [S]
17,"Candida tropicalis isolate 313 (ERG11 copies: 2, Erg11p: no key change)",0.25 mg/L [S]
18,"Candida tropicalis isolate 417 (ERG11 copies: 8, Erg11p: Y132F, S154F, P397S (heterozygous))",1 mg/L [R]

row,Test System,MIC
1,"Candida tropicalis isolate 49 (ERG11 copies: 2, Erg11p: no key change)",0.25 mg/L [S]
2,"Candida tropicalis isolate 58 (ERG11 copies: 2, Erg11p: no key change)",0.5 mg/L [S]
3,"Candida tropicalis isolate 264 (ERG11 copies: 2, Erg11p: no key change)",0.12 mg/L [S]
4,"Candida tropicalis isolate 101 (ERG11 copies: 2, Erg11p: no key change)",0.12 mg/L [S]
5,"Candida tropicalis isolate 300 (ERG11 copies: 6, Erg11p: Y132F, S154F (heterozygous))",1 mg/L [R]
6,"Candida tropicalis isolate 79 (ERG11 copies: 2, Erg11p: no key change)",0.12 mg/L [S]
7,"Candida tropicalis isolate 162 (ERG11 copies: 2, Erg11p: no key change)",0.5 mg/L [S]
8,"Candida tropicalis isolate 11 (ERG11 copies: 2, Erg11p: no key change)",0.25 mg/L [S]
9,"Candida tropicalis isolate 238 (ERG11 copies: 2, Erg11p: Y257H (homozygous))",0.25 mg/L [S]
10,"Candida tropicalis isolate 227 (ERG11 copies: 2, Erg11p: no key change)",0.25 mg/L [S]
11,"Candida tropicalis isolate 311 (ERG11 copies: 2, Erg11p: Y132F, S154F (homozygous))",0.25 mg/L [S]
12,"Candida tropicalis isolate 444 (ERG11 copies: 2, Erg11p: no key change)",0.25 mg/L [S]
13,"Candida tropicalis isolate 60 (ERG11 copies: 2, Erg11p: no key change)",0.12 mg/L [S]
14,"Candida tropicalis isolate 421 (ERG11 copies: 2, Erg11p: no key change)",0.25 mg/L [S]
15,"Candida tropicalis isolate 290 (ERG11 copies: 2, Erg11p: no key change)",0.5 mg/L [S]
16,"Candida tropicalis isolate 365 (ERG11 copies: 2, Erg11p: no key change)",0.25 mg/L [S]
17,"Candida tropicalis isolate 362 (ERG11 copies: 2, Erg11p: no key change)",0.5 mg/L [S]
18,"Candida tropicalis isolate 291 (ERG11 copies: 2, Erg11p: no key change)",0.06 mg/L [S]

# Compound: CCCCCOc1ccc(-c2cc(-c3ccc(C(=O)N[C@H]4C[C@@H](O)[C@@H](O)NC(=O)[C@@H]5[C@@H](O)[C@@H](C)CN5C(=O)[C@H]([C@H](O)CC(N)=O)NC(=O)[C@H]([C@H](O)[C@@H](O)c5ccc(O)c(OS(=O)(=O)O)c5)NC(=O)[C@@H]5C[C@@H](O)CN5C(=O)[C@H]([C@@H](C)O)NC4=O)cc3)no2)cc1 [micafungin]
# Test: CLSI broth microdilution.
row,Test System,MIC
1,"Candida tropicalis isolate 326 (ERG11 copies: 4, Erg11p: Y132F, S154F (heterozygous))",0.03 mg/L [S]
2,"Candida tropicalis isolate 75 (ERG11 copies: 2, Erg11p: no key change)",0.03 mg/L [S]
3,"Candida tropicalis isolate 113 (ERG11 copies: 2, Erg11p: no key change)",0.008 mg/L [S]
4,"Candida tropicalis isolate 324 (ERG11 copies: 2, Erg11p: no key change)",0.015 mg/L [S]
5,"Candida tropicalis isolate 125 (ERG11 copies: 7, Erg11p: Y132F, S154F (heterozygous))",0.06 mg/L [S]
6,"Candida tropicalis isolate 29 (ERG11 copies: 2, Erg11p: no key change)",0.015 mg/L [S]
7,"Candida tropicalis isolate 250 (ERG11 copies: 2, Erg11p: no key change)",0.06 mg/L [S]
8,"Candida tropicalis isolate 446 (ERG11 copies: 2, Erg11p: no key change)",0.015 mg/L [S]
9,"Candida tropicalis isolate 132 (ERG11 copies: 10, Erg11p: Y132F, S154F (heterozygous))",0.03 mg/L [S]
10,"Candida tropicalis isolate 329 (ERG11 copies: 2, Erg11p: no key change)",0.06 mg/L [S]
11,"Candida tropicalis isolate 241 (ERG11 copies: 2, Erg11p: no key change)",0.015 mg/L [S]
12,"Candida tropicalis isolate 166 (ERG11 copies: 2, Erg11p: no key change)",0.03 mg/L [S]
13,"Candida tropicalis isolate 360 (ERG11 copies: 2, Erg11p: no key change)",0.03 mg/L [S]
14,"Candida tropicalis isolate 194 (ERG11 copies: 8, Erg11p: Y132F, S154F (heterozygous))",0.03 mg/L [S]
15,"Candida tropicalis isolate 391 (ERG11 copies: 2, Erg11p: Y132F, S154F (homozygous))",0.03 mg/L [S]
16,"Candida tropicalis isolate 170 (ERG11 copies: 2, Erg11p: Y132F, S154F (homozygous))",0.03 mg/L [S]
17,"Candida tropicalis isolate 313 (ERG11 copies: 2, Erg11p: no key change)",0.03 mg/L [S]
18,"Candida tropicalis isolate 417 (ERG11 copies: 8, Erg11p: Y132F, S154F, P397S (heterozygous))",0.03 mg/L [S]

# Source: the supplement of paper PMC10724272
